Data taken from the supplement of paper PMC11417369.
± gives the standard deviation of the averaged measurements. The list shows a part of the results.

Test system: PfAP2-EXP AP2 domain (GST-tagged)
Assay: gcPBM binding intensity (ln(normalized median fluorescence intensity)); higher = stronger DNA binding
How it was run: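 Plasmodium falciparum DNA-binding domains carrying a GST tag were expressed in E. coli and applied for 1 h, at about 25 μg on average, to an Agilent 4 × 180k array. The array held primer-extended double-stranded 36-bp intergenic genomic probes together with negative controls, and binding took place in 1× PBS with 1% milk, 0.2 mg/ml BSA, 0.5% salmon testes DNA and 0.03% Triton X-100. An Alexa488 anti-GST antibody detected bound protein, and the array was scanned at 488 nm. Binding intensity is taken as the highest Masliner-normalised natural-log median intensity across replicate spots of either probe orientation.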

Row | Sequence | gcPBM binding intensity (ln)
1 | ATTTTTTATATTTAGTGTACATGTTTTAATTTATAA [XGTACX_site7512] | 8.9 ± 0.38
2 | CTTATATAATTCGATAGTACATATTTTTATATATAT [XGTACX_site4045] | 8.43 ± 0.38
3 | TATATATATATAAGCACACAAACAAAAAAAATTATA [CACACA_site3897] | 9.74 ± 0.27
4 | ATATTTTTTAGTAAGACGAAATAAATAAATCTTTAT [CACACA_negctrl_site1778] | 8.21 ± 0.52
5 | TTTTCTTTTTTTTTTGTGCACATAATATATAATTAT | 9.01 ± 0.25
6 | TTTTTCCTATTTTTAGTGCACATATAAATAAATAAA [GTGCAC_site9821] | 9.06 ± 0.35
7 | ATTGAATATGTAAATGCACACCAAAAAAAAAAAAAA [CACACA_site9189] | 8.67 ± 0.28
8 | CGTATTTATAGAATTACACACCATATTGTAATTATT [CACACA_site7722] | 8.47 ± 0.4
9 | TTTTTTTTGTAATACGCATGCTAAAAATATTTATAA [TGCATGCA_site656] | 9.27 ± 0.3
10 | GTGTTTTTATTATTTTGTACACATATATTTAATATT [XGTACX_site2109] | 9.24 ± 0.3
11 | ATTTAAATAAGATATACACACAAGTAGAAGACTATG [CACACA_site806] | 8.82 ± 0.55
12 | TTTTCGATGTTGGTAGGAAGTTTGGTACACGTAGTA [TGCATGCA_negctrl_site145] | 8.62 ± 0.32
13 | GAATGTCTAATTTTGATGCACACTTTTGTGCAATTA [CACACA_site2902] | 8.41 ± 0.12
14 | AAAATTCATATATACACACACGCACATATATATATA [CACACA_site90] | 10.14 ± 0.028
15 | CAAAAAATTCAACACACACACACACCGATAAATAAA [CACACA_site8330] | 8.57 ± 0.61
16 | TTATATTATTCGTGTGTGCACGATATTTCATAATTG [GTGCAC_site9767] | 8.41 ± 0.24
17 | TTGTCCCTATAAGGGGAACACACATAAATGAATATA [CACACA_site8250] | 8.4 ± 0.38
18 | ATAATGTTTTATAATACACACATTATGTATATAAAT [CACACA_site4077] | 8.36 ± 0.38
19 | AAAACTATTTGTAAAAGTACATAATAAATAAATAAA [XGTACX_site7922] | 8.69 ± 0.36
20 | AAAAAAAAAAAAAACACACACACACCCATACAAAAT [CACACA_site1446] | 8.78 ± 0.61
21 | ATGCACTCATTGTGCACACGCATATTACGAAAAGAA [CACACA_site2638] | 9.06 ± 0.071
22 | AATAAATAAAAAACATGTACAAATATAATATAGCAT [XGTACX_site6429] | 9.18 ± 0.5

Row | Sequence | gcPBM binding intensity (ln)
23 | AAGATTTGAAAAAATACACACAATAAAAAAATAAAA [CACACA_site3281] | 8.73 ± 0.42
24 | TATATATATATGTGTATACACACCTGATAAAGGTAT [CACACA_site2653] | 9.89 ± 0.19
25 | TATTTAACACCTTATACACACTTTCTTCCTTTTTTA [CACACA_site4590] | 8.85 ± 0.5
26 | TATACATATGAAAATACACACATACATACCTATATA [CACACA_site6888] | 8.57 ± 0.47
27 | TAATTGTACGCCAATACACACAGAATTATAATGTAG [CACACA_site6201] | 8.82 ± 0.48
28 | AATAGAAAAAAATAAGTGCATTTTGGTATTCATCAT [GTGCAC_site9614] | 8.6 ± 0.3
29 | GATATTGAGAAAGGGTGTACAAGATATTATACTATA [XGTACX_site3598] | 8.55 ± 0.42
30 | ACATAAATAATAAAAACACACATATGTACATATATA [CACACA_site1913] | 8.72 ± 0.33
31 | TTTTATGTAATTATTTGTACATATGCCTCTTAAACT [XGTACX_site748] | 8.53 ± 0.41
32 | AAATTTATATTCATTTGTACGTAATTTAAATTATAC [XGTACX_site5870] | 8.54 ± 0.35
33 | ACAAAATATACAAAATGTACAAAATTTACAAAATGT [XGTACX_site3544] | 8.36 ± 0.3
34 | AAAAAAAAAAAGCACACACACATATGTGTATTTATA [CACACA_site6578] | 8.38 ± 0.5
35 | TACTAGCAAATACATACACACACACCCATATACATA [CACACA_site9163] | 8.69 ± 0.48
36 | GTAATATATACAAAATGTACAAAACAATAACATGAT [XGTACX_site8575] | 8.8 ± 0.39
37 | ATCCAAACAAATAAAACATGCATAATATATATATAT [TGCATGCA_site766] | 10 ± 0.48
38 | CTCAAATAATTTTTTACACACATTATTTGAAATAAG [CACACA_site1290] | 8.35 ± 0.33
39 | ATGCTTTTATAAATAATTAAAAAAAAAAAAAAAAAA [TGCATGCA_negctrl_site533] | 7.95 ± 0.45
40 | TTTTTTTTTAATATTTGTACACAACATGAAACATTT [XGTACX_site473] | 8.56 ± 0.43
41 | TAAAATATTACGTGTACACATAAATAAAAATAAAAA [CACACA_site5066] | 8.82 ± 0.18
42 | TTTTATATTCCACAAAAAATTATATAATAATAGAAC [CACACA_negctrl_site1741] | 8.74 ± 0.37
43 | TTATTATGCTGAGTACGTACTTATATAAGAATAGCA [XGTACX_site2955] | 9.01 ± 0.4
44 | AAATTATTTCCGTGTACACATAAATATATATTTTAT [CACACA_site5121] | 9.08 ± 0.27

Row | Sequence | gcPBM binding intensity (ln)
45 | TAAGTTCACAAAAAAAAAAAAAAATAAAGAAATAAA [CACACA_negctrl_site825] | 8.31 ± 0.57
46 | TATCATGTCTGTATTTCACACACGGATAATCATTTA [CACACA_site920] | 8.42 ± 0.38
47 | TGTTATATTTAATATAGTACATATTATTTTATATAT [XGTACX_site70] | 8.34 ± 0.23
48 | AAAAATAAAATATATACATGCATATACATATTATAT [TGCATGCA_site668] | 8.44 ± 0.3
49 | ATGTATATAATAAGAACACACATATATTTAATTTAA [CACACA_site2941] | 8.33 ± 0.47
50 | TATTCTATATTTCTATTTAGAAAACATCCCAGTGTG [GTGCAC_negctrl_site184] | 8.14 ± 0.38
51 | ATACATATATACATACGTACTTATATACATATGTGC [XGTACX_site5268] | 8.56 ± 0.18
52 | ATTTATATGCACCATTGTACGTTTTATAAAGTTTGG [XGTACX_site3755] | 9.04 ± 0.35
53 | AGAAAATTAAAAAGAACACACAAATATATATAGAAT [CACACA_site3592] | 8.96 ± 0.49
54 | AAAATAATATTTAATACACACACCAGTTCTGCAAAT [CACACA_site3736] | 8.73 ± 0.43
55 | TAATAAGTAAAAAAATGTACCCGTTAGGTTTAATAA [XGTACX_site638] | 8.34 ± 0.34
56 | ACAAAAAGGTAATTTACACACTGCATATAGGAATAA [CACACA_site2929] | 8.83 ± 0.59
57 | TTTTTTTATTTTATTTTATTATCTTATGTATCACAA [CACACA_negctrl_site1755] | 8.52 ± 0.49
58 | TTTTTCTCTCTCTTATTATACAACAACAAAAAAAAA [GTGCAC_negctrl_site178] | 8.43 ± 0.38
59 | AGAAATATATATATATATATATGTGACAATATTTGT [TGCATGCA_negctrl_site282] | 8.78 ± 0.47
60 | TTTATATTCTTAAGTGTGCACTATATATATATATAT [GTGCAC_site9719] | 10.38 ± 0.049
61 | ACCCTATATGTAACTACACACCGCATATTGTTTACT [CACACA_site3071] | 9.19 ± 0.43
62 | TTTGTTCATATTATTGTGCACTTAAACGTAACAAAA [GTGCAC_site9505] | 9.115 ± 0.049
63 | AATGTAGCATTTTATCGTACACTTAATACAAAAAAG [XGTACX_site6214] | 8.44 ± 0.28
64 | ATGTATGTATATACTTGTACATATTCATATTAGTAT [XGTACX_site1118] | 8.45 ± 0.35
65 | CAATTACAAAAGAAATGTACTCGTAATAAATAAATA [XGTACX_site1126] | 8.8 ± 0.35
66 | TGAAATTTTTATACATGTACAAAATTAAATATAACA [XGTACX_site7324] | 8.6 ± 0.39

Row | Sequence | gcPBM binding intensity (ln)
67 | TATAATAATAATAATAGTACGTATTATTAAAAAACT [XGTACX_site10] | 8.59 ± 0.3
68 | ATATTACACATATATGCACACATTGTAGTTATTTAT [CACACA_site8843] | 8.81 ± 0.3
69 | TATATATAAAGGTGTACACATATATATATATCTGTA [CACACA_site5311] | 8.45 ± 0.17
70 | ATTTCATATTATGTAACACACAACAAGATAATCAAA [CACACA_site1960] | 8.46 ± 0.54
71 | ACTTACACAGTTGATGGTACACTTTTATGATTTTGT [XGTACX_site3205] | 8.79 ± 0.47
72 | TTTTTTAACCTTTTATGTACACAATATTTAACATTT [XGTACX_site1170] | 8.79 ± 0.38
73 | ACAAGTTAAAATATTACACACATATAAATATATATA [CACACA_site3132] | 8.38 ± 0.13
74 | ATAAGGTTACAACAAACACACAAAGGAATATACTCA [CACACA_site6108] | 8.78 ± 0.54
75 | TTTTATTTACACAGTGGTACTATTAAAAATTAATGA [XGTACX_site6737] | 8.45 ± 0.4
76 | TATTTTAACATTAGGTGTACATACAAAAATAAAAAT [XGTACX_site8577] | 8.87 ± 0.37
77 | ATAATATGAAAACACACACACACACTAGAAAAAAAA [CACACA_site5153] | 8.72 ± 0.58
78 | AAAAAAAAAAATATAACACACAACAAAAAAATATAT [CACACA_site1753] | 8.63 ± 0.49
79 | ATTATTTAAATGGATGCACACATGCATTAAATAAAA [CACACA_site5831] | 8.48 ± 0.11
80 | AATATTTGTTAAAGAGGTACACCATTTGGTAGGGAA [XGTACX_site2165] | 8.71 ± 0.36
81 | TTTTTCTTTTTACATACACACAAAAAAATAAAATAT [CACACA_site581] | 8.52 ± 0.47
82 | TTTTTCAAATTTAATACACACACAAGTATATATTTA [CACACA_site9307] | 8.18 ± 0.3
83 | TGGTAATTTCTTTGATAAAAATTAATATGTATAAAT [XGTACX_negctrl_site152] | 8.2 ± 0.35
84 | AAATTAATATTATGTGCATGCACAAAGAGGAACGAC [TGCATGCA_site754] | 10.7 ± 0.18
85 | TCTATTAATTAATATACACACATTAGATATAAATAT [CACACA_site7241] | 8.41 ± 0.37
86 | TAATTAAATAAAAAAACACACACATATATACATATA [CACACA_site9141] | 8.56 ± 0.4
87 | ACACATATATAAATATGTACATATATATATATACAT [XGTACX_site1595] | 8.61 ± 0.23
88 | TAATAAAGGTGTAATACACACTATAAAAAGGAATAT [CACACA_site4756] | 8.84 ± 0.41
